Read-outs that look alike come from different tables or passages of the source.
How the values were obtained:
[1] = molecular target: human insulin receptor isoform A (human, UniProt P06213-2)
human IGF-1 receptor [2] = molecular target: T1, human IGF-1 receptor (human, UniProt P08069 31-1367); assay: series "
human IGF-1 receptor [3] = molecular target: T1, human IGF-1 receptor; assay: series #
human IGF-1 receptor [4] = molecular target: T1, human IGF-1 receptor; assay: series $
human IGF-1 receptor [5] = molecular target: T1, human IGF-1 receptor; assay: series ^
human IGF-1 receptor [6] = molecular target: T1, human IGF-1 receptor; assay: series €
human IGF-1 receptor [7] = molecular target: T1, human IGF-1 receptor

Binder	Kd [1] [nM]	Kd (human IGF-1 receptor [2]) [nM]	Kd (human IGF-1 receptor [3]) [nM]	Kd (human IGF-1 receptor [4]) [nM]	Kd (human IGF-1 receptor [5]) [nM]	Kd (human IGF-1 receptor [6]) [nM]	Kd (human IGF-1 receptor [7]) [nM]
human insulin-like growth factor 1 (ligand, three intramolecular disulfides; N-terminal Gly(-1) left by TEV cleavage is included (mature number + 48 = entry number)) not shown	24	0.19	0.11	0.24	0.24	0.25	–
Thr-51–IGF-1 (ligand, three intramolecular disulfides; N-terminal Gly(-1) included) not shown	8.1	–	–	–	–	–	0.2
His-58–IGF-1 (ligand, three intramolecular disulfides; N-terminal Gly(-1) included) not shown	91	–	–	–	–	–	3.3
His-51–IGF-1 (ligand, three intramolecular disulfides; N-terminal Gly(-1) included) not shown	38.7	–	–	–	–	–	0.22
His-54–IGF-1 (ligand, three intramolecular disulfides; N-terminal Gly(-1) included) not shown	12.2	–	–	–	–	–	0.38
Asp-58–IGF-1 (ligand, three intramolecular disulfides; N-terminal Gly(-1) included) not shown	24.1	–	–	–	–	–	0.8
Val-54–IGF-1 (ligand, three intramolecular disulfides; N-terminal Gly(-1) included) not shown	11.2	–	–	–	–	–	0.23

Reference: PMC6873181 (2019)
